From the supplement of paper PMC8728848
The other results are listed elsewhere or left out.

Columns and labels:
Assay in all cases: glycan array binding signal (z-score within array); higher = stronger binding
Details in all cases: glycan notation: IUPAC condensed, linker removed
[1] = target: Neu5Ac(a2-3)Gal(b1-3)[Fuc(a1-4)]GlcNAc(b1-3)Gal(b1-4)[Fuc(a1-3)]GlcNAc
Method in brief: (§1)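 Columns mapping to the same glycan were averaged after glycan names were converted to IUPAC-condensed notation. The data come from 3228 arrays in the Consortium for Functional Glycomics database, limited to those with an available protein sequence. Binding is reported as a within-array Z-score averaged across arrays of one protein sequence and across linkers.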

[2] = target: Neu5Ac(a2-3)Gal(b1-3)[Neu5Ac(a2-3)Gal(b1-4)]GlcNAc
Method in brief: as §1

[3] = target: Neu5Ac(a2-3)Gal(b1-3)[Neu5Ac(a2-6)]GalNAc
Method in brief: as §1

Neu5Ac(a2-3)Gal(b1-4)Glc = target: Neu5Ac(a2-3)Gal(b1-4)Glc
Method in brief: as §1

[4] = target: Neu5Ac(a2-3)Gal(b1-4)GlcNAc
Method in brief: as §1

[5] = target: Neu5Ac(a2-3)Gal(b1-4)GlcNAc(b1-2)Man(a1-3)[GlcNAc(b1-2)Man(b1-4)GlcNAc(b1-2)Man(a1-6)]Man(b1-4)GlcNAc(b1-4)GlcNAc
Method in brief: as §1

[6] = target: Neu5Ac(a2-3)Gal(b1-4)GlcNAc(b1-2)Man(a1-3)[Neu5Ac(a2-6)Gal(b1-4)GlcNAc(b1-2)Man(a1-6)]Man(b1-4)GlcNAc(b1-4)GlcNAc
Method in brief: as §1

[7] = target: Neu5Ac(a2-3)Gal(b1-4)GlcNAc(b1-3)Gal(b1-3)GlcNAc
Method in brief: as §1

[8] = target: Neu5Ac(a2-3)Gal(b1-4)GlcNAc(b1-3)Gal(b1-4)GlcNAc
Method in brief: as §1

[9] = target: Neu5Ac(a2-3)Gal(b1-4)GlcNAc(b1-3)Gal(b1-4)GlcNAc(b1-3)Gal(b1-4)GlcNAc
Method in brief: as §1

[10] = target: Neu5Ac(a2-3)Gal(b1-4)GlcNAc(b1-3)Gal(b1-4)[Fuc(a1-3)]GlcNAc
Method in brief: as §1

[11] = target: Neu5Ac(a2-3)Gal(b1-4)GlcNAc(b1-6)[Gal(b1-3)]GalNAc
Method in brief: as §1

[12] = target: Neu5Ac(a2-3)Gal(b1-4)GlcNAc(b1-6)[Neu5Ac(a2-3)Gal(b1-3)]GalNAc
Method in brief: as §1

[13] = target: Neu5Ac(a2-3)Gal(b1-4)GlcNAc6S
Method in brief: as §1

[14] = target: Neu5Ac(a2-3)Gal(b1-4)[Fuc(a1-3)]GlcNAc
Method in brief: as §1

[15] = target: Neu5Ac(a2-3)Gal(b1-4)[Fuc(a1-3)]GlcNAc(b1-3)Gal
Method in brief: as §1

[16] = target: Neu5Ac(a2-3)Gal(b1-4)[Fuc(a1-3)]GlcNAc(b1-3)Gal(b1-4)GlcNAc
Method in brief: as §1

[17] = target: Neu5Ac(a2-3)Gal(b1-4)[Fuc(a1-3)]GlcNAc(b1-3)Gal(b1-4)[Fuc(a1-3)]GlcNAc(b1-3)Gal(b1-4)[Fuc(a1-3)]GlcNAc
Method in brief: as §1

[18] = target: Neu5Ac(a2-3)Gal(b1-4)[Fuc(a1-3)]GlcNAc(b1-6)[Gal(b1-3)]GalNAc
Method in brief: as §1

[19] = target: Neu5Ac(a2-3)Gal(b1-4)[Fuc(a1-3)]GlcNAc6S
Method in brief: as §1

[20] = target: Neu5Ac(a2-3)Gal6S(b1-4)GlcNAc
Method in brief: as §1

[21] = target: Neu5Ac(a2-3)Gal6S(b1-4)[Fuc(a1-3)]GlcNAc
Method in brief: as §1

Neu5Ac(a2-3)GalNAc = target: Neu5Ac(a2-3)GalNAc
Method in brief: as §1

[22] = target: Neu5Ac(a2-3)GalNAc(b1-4)GlcNAc
Method in brief: as §1

[23] = target: Neu5Ac(a2-3)[GalNAc(b1-4)]Gal(b1-4)Glc
Method in brief: as §1

[24] = target: Neu5Ac(a2-3)[GalNAc(b1-4)]Gal(b1-4)GlcNAc
Method in brief: as §1

[25] = target: Neu5Ac(a2-3)[Neu5Ac(a2-6)]GalNAc
Method in brief: as §1

Neu5Ac(a2-6)Gal = target: Neu5Ac(a2-6)Gal
Method in brief: as §1

Neu5Ac(a2-6)Gal(b1-4)Glc = target: Neu5Ac(a2-6)Gal(b1-4)Glc
Method in brief: as §1

[26] = target: Neu5Ac(a2-6)Gal(b1-4)GlcNAc
Method in brief: as §1

[27] = target: Neu5Ac(a2-6)Gal(b1-4)GlcNAc(b1-2)Man(a1-3)[Gal(b1-4)GlcNAc(b1-2)Man(a1-6)]Man(b1-4)GlcNAc(b1-4)GlcNAc
Method in brief: as §1

[28] = target: Neu5Ac(a2-6)Gal(b1-4)GlcNAc(b1-2)Man(a1-3)[GlcNAc(b1-2)Man(a1-6)]Man(b1-4)GlcNAc(b1-4)GlcNAc
Method in brief: as §1

[29] = target: Neu5Ac(a2-6)Gal(b1-4)GlcNAc(b1-2)Man(a1-3)[GlcNAc(b1-2)Man(b1-4)GlcNAc(b1-2)Man(a1-6)]Man(b1-4)GlcNAc(b1-4)GlcNAc
Method in brief: as §1

[30] = target: Neu5Ac(a2-6)Gal(b1-4)GlcNAc(b1-2)Man(a1-3)[Neu5Ac(a2-6)Gal(b1-4)GlcNAc(b1-2)Man(a1-6)]Man(b1-4)GlcNAc(b1-4)GlcNAc
Method in brief: as §1

[31] = target: Neu5Ac(a2-6)Gal(b1-4)GlcNAc(b1-2)Man(a1-6)[Gal(b1-4)GlcNAc(b1-2)Man(a1-3)]Man(b1-4)GlcNAc(b1-4)GlcNAc
Method in brief: as §1

[32] = target: Neu5Ac(a2-6)Gal(b1-4)GlcNAc(b1-2)Man(a1-6)[GlcNAc(b1-2)Man(a1-3)]Man(b1-4)GlcNAc(b1-4)GlcNAc
Method in brief: as §1

[33] = target: Neu5Ac(a2-6)Gal(b1-4)GlcNAc(b1-3)Gal(b1-4)GlcNAc
Method in brief: as §1

[34] = target: Neu5Ac(a2-6)Gal(b1-4)GlcNAc(b1-3)Gal(b1-4)[Fuc(a1-3)]GlcNAc(b1-3)Gal(b1-4)[Fuc(a1-3)]GlcNAc
Method in brief: as §1

[35] = target: Neu5Ac(a2-6)Gal(b1-4)GlcNAc6S
Method in brief: as §1

Neu5Ac(a2-6)GalNAc = target: Neu5Ac(a2-6)GalNAc
Method in brief: as §1

[36] = target: Neu5Ac(a2-6)GalNAc(b1-4)GlcNAc
Method in brief: as §1

Neu5Ac(a2-8)Neu5Ac = target: Neu5Ac(a2-8)Neu5Ac
Method in brief: as §1

[37] = target: Neu5Ac(a2-8)Neu5Ac(a2-3)Gal(b1-4)Glc
Method in brief: as §1

[38] = target: Neu5Ac(a2-8)Neu5Ac(a2-3)[GalNAc(b1-4)]Gal(b1-4)Glc
Method in brief: as §1

[39] = target: Neu5Ac(a2-8)Neu5Ac(a2-8)Neu5Ac
Method in brief: as §1

[40] = target: Neu5Ac(a2-8)Neu5Ac(a2-8)Neu5Ac(a2-3)Gal(b1-4)Glc
Method in brief: as §1

[41] = target: Neu5Ac(a2-8)Neu5Ac(a2-8)Neu5Ac(a2-3)[GalNAc(b1-4)]Gal(b1-4)Glc
Method in brief: as §1

[42] = target: Neu5Ac(a2-8)Neu5Ac(a2-8)Neu5Ac(a2-8)Neu5Ac(a2-3)[GalNAc(b1-4)]Gal(b1-4)Glc
Method in brief: as §1

[43] = target: Neu5Ac(b2-6)Gal(b1-4)GlcNAc
Method in brief: as §1

Neu5Ac(b2-6)GalNAc = target: Neu5Ac(b2-6)GalNAc
Method in brief: as §1

[44] = target: Neu5Ac9Ac(a2-6)Gal(b1-4)GlcNAc
Method in brief: as §1

[45] = target: Neu5Gc(a2-3)Gal(b1-3)GlcNAc
Method in brief: as §1

[46] = target: Neu5Gc(a2-3)Gal(b1-3)[Fuc(a1-4)]GlcNAc
Method in brief: as §1

Neu5Gc(a2-3)Gal(b1-4)Glc = target: Neu5Gc(a2-3)Gal(b1-4)Glc
Method in brief: as §1

[47] = target: Neu5Gc(a2-3)Gal(b1-4)GlcNAc
Method in brief: as §1

[48] = target: Neu5Gc(a2-3)Gal(b1-4)[Fuc(a1-3)]GlcNAc
Method in brief: as §1

[49] = target: Neu5Gc(a2-6)Gal(b1-4)GlcNAc
Method in brief: as §1

Neu5Gc(a2-6)GalNAc = target: Neu5Gc(a2-6)GalNAc
Method in brief: as §1

[50] = target: Neu5Gc(b2-6)Gal(b1-4)GlcNAc
Method in brief: as §1

B1: HFR-1 (Triticum aestivum) (protein)
chain: MSPQSFTLETTTTTPAAKGSDPSYFQSAPACHEMIQHKELLLHLYAYQNVQKTPDANQAVIVESKRPECFGILAANDWTVYDGPAHNANLVAHAQGLHLGASMAKENWFICFNMVFVNQRFTGSSFKVMGDFQGTAHNGEWAIVGGTGEFAYAQGVIAFKKTQQSERNARMELHVRAMCLSFLRPLLSLGDGSAVAKIGPWGKMSGELLDIPSTPQRLERITIRHGVVIDSLAFSFIDKAGEPYNVGPWGGRRGDNKDTIELAPSEIVTEVSGTVGIFAEDNVEYNAIASLTITTNHRPYGPFGETQSTPFSVPVQDNNNIVGFFACAGKYVEALGVYVRSPVST
Which results are given for B1?
glycan array binding signal (z-score) [1]: -0.207; glycan array binding signal (z-score) [2]: -0.228; glycan array binding signal (z-score) [3]: -0.142; glycan array binding signal (z-score) (Neu5Ac(a2-3)Gal(b1-4)Glc): -0.188; glycan array binding signal (z-score) [4]: -0.221; glycan array binding signal (z-score) [5]: -0.177; glycan array binding signal (z-score) [6]: -0.218; glycan array binding signal (z-score) [7]: -0.206; glycan array binding signal (z-score) [8]: -0.189; glycan array binding signal (z-score) [9]: -0.221; glycan array binding signal (z-score) [10]: -0.212; glycan array binding signal (z-score) [11]: -0.066; glycan array binding signal (z-score) [12]: -0.224; glycan array binding signal (z-score) [13]: -0.22; glycan array binding signal (z-score) [14]: -0.064; glycan array binding signal (z-score) [15]: -0.121; glycan array binding signal (z-score) [16]: -0.187; glycan array binding signal (z-score) [17]: -0.081; glycan array binding signal (z-score) [18]: 0.098; glycan array binding signal (z-score) [19]: -0.192; glycan array binding signal (z-score) [20]: -0.213; glycan array binding signal (z-score) [21]: -0.22; glycan array binding signal (z-score) (Neu5Ac(a2-3)GalNAc): -0.206; glycan array binding signal (z-score) [22]: -0.172; glycan array binding signal (z-score) [23]: -0.024; glycan array binding signal (z-score) [24]: -0.165; glycan array binding signal (z-score) [25]: -0.189; glycan array binding signal (z-score) (Neu5Ac(a2-6)Gal): -0.228; glycan array binding signal (z-score) (Neu5Ac(a2-6)Gal(b1-4)Glc): -0.192; glycan array binding signal (z-score) [26]: -0.223; glycan array binding signal (z-score) [27]: -0.196; glycan array binding signal (z-score) [28]: -0.211; glycan array binding signal (z-score) [29]: -0.187; glycan array binding signal (z-score) [30]: -0.12; glycan array binding signal (z-score) [31]: -0.222; glycan array binding signal (z-score) [32]: -0.066; glycan array binding signal (z-score) [33]: -0.221; glycan array binding signal (z-score) [34]: -0.21; glycan array binding signal (z-score) [35]: -0.187; glycan array binding signal (z-score) (Neu5Ac(a2-6)GalNAc): -0.031; glycan array binding signal (z-score) [36]: -0.093; glycan array binding signal (z-score) (Neu5Ac(a2-8)Neu5Ac): -0.202; glycan array binding signal (z-score) [37]: -0.144; glycan array binding signal (z-score) [38]: -0.184; glycan array binding signal (z-score) [39]: -0.214; glycan array binding signal (z-score) [40]: -0.211; glycan array binding signal (z-score) [41]: -0.078; glycan array binding signal (z-score) [42]: 0.01; glycan array binding signal (z-score) [43]: -0.205; glycan array binding signal (z-score) (Neu5Ac(b2-6)GalNAc): -0.141; glycan array binding signal (z-score) [44]: -0.219; glycan array binding signal (z-score) [45]: -0.226; glycan array binding signal (z-score) [46]: -0.217; glycan array binding signal (z-score) (Neu5Gc(a2-3)Gal(b1-4)Glc): -0.132; glycan array binding signal (z-score) [47]: -0.221; glycan array binding signal (z-score) [48]: -0.219; glycan array binding signal (z-score) [49]: -0.23; glycan array binding signal (z-score) (Neu5Gc(a2-6)GalNAc): 0.118; glycan array binding signal (z-score) [50]: -0.197
